# Reference: PubChem BioAssay AID504832 (National Center for Advancing Translational Sciences (NCATS), 2011)
# Out of some 310,000 compounds screened, about 18,000 (5.8%) were called active. The inconclusive results got no clear call from the source; some entries with a clear call stand among them for comparison. Calls come from the whole dose curve; as a rule, active = well fitted inhibition curve with a large enough effect; inconclusive = small, poorly fitted or top-dose-only effect, or another doubt; inactive = no such curve, though single readings can be large or run the other way. Potencies of inconclusive entries are left out as doubtful fits.
# Assay: Primary qHTS for delayed death inhibitors of the malarial parasite plastid, 48 hour incubation
# Conditions: P. falciparum luciferase growth in erythrocytes; series mostly up to 28.7 µM; activity change, negative = inhibition: at the top concentration
# Outline: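 Luminescence readout; reporter = integrated firefly luciferase in P. falciparum. RBC culture at 2% hematocrit, 0.1% parasitemia final, 37 C/5% CO2; decreased signal taken as growth inhibition.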
# % is set by controls: 0 for no effect and ±100 for the full control effect; potency is the fitted concentration of half-maximal effect; tags give direction and shape of the fitted curve.
Compound,"activity change, negative = inhibition",Potency
COc1ccc(CN2CCC(CNS(=O)(=O)c3cccc(C(F)(F)F)c3)CC2)cc1,inactive: -7.87%,–
Cc1[nH]c2ccccc2c1C(C[N+](=O)[O-])c1cccc(O)c1 (configuration not stated),–,"inconclusive [inhibitor, partial curve, poor fit]"
N/C(=N\OC(=O)c1cccs1)c1ccccc1,inactive: 149%,–
O=C(OCc1nnc(-c2ccccc2)o1)c1cccc(-n2cnnn2)c1,inactive: 69.4%,–
Cc1ccc(S(=O)(=O)NCc2ccc(C(=O)N3CCN(c4ccc([N+](=O)[O-])cc4)CC3)cc2)cc1,–,"inconclusive [inhibitor, partial curve, poor fit]"
CCOc1ccc(CNCCCSc2ncccn2)cc1,inactive: -14.9%,–
CCN(CC)S(=O)(=O)c1cc(C(=O)n2cccn2)c(Cl)cc1Cl,–,"inconclusive [inhibitor, full curve, poor fit]"
O=C(CCc1ccc(O)cc1)c1c(O)cc(O)cc1O,–,"inconclusive [inhibitor, partial curve, poor fit]"
Cc1cc(C)n(-c2nc(SCC(=O)O)c3c4c(sc3n2)CCCC4)n1,–,"inconclusive [inhibitor, partial curve, poor fit]"
Cc1c(C(=O)NCCCN2CCOCC2)sc2nc(-c3ccc(F)cc3)cn12,–,"inconclusive [inhibitor, single point]"
COc1cc(C)c(-c2nc(CN3C[C@@H]4C[C@@H](C3)c3cccc(=O)n3C4)c(C)o2)cc1C,–,"inconclusive [inhibitor, partial curve]"
NC(=NCCc1ccccc1)c1cccc([N+](=O)[O-])c1,–,"inconclusive [inhibitor, full curve, poor fit]"
Cc1cc(C)nc(/N=C(/NC(=O)c2ccccc2)Nc2ccccc2)n1,inactive: -0.695%,–
COc1ccc(-n2c(SC(C)C(=O)Nc3ccc(NC(C)=O)cc3)nc3ccccc3c2=O)cc1OC (configuration not stated),–,"inconclusive [inhibitor, partial curve]"
Cn1c(=O)[nH]c(=O)c2c1nc(SCCN1CCCCC1)n2Cc1ccccc1,–,"inconclusive [inhibitor, partial curve]"
Cc1ccc(N(Cc2ccccc2)C(=O)c2ccc(S(=O)(=O)N3CCOCC3)cc2)cc1,–,active: 13.1 µM
O=C1C(Cc2ccccc2)NC(=S)N1Cc1ccccc1 (configuration not stated),inactive: 21.6%,–
COc1ccc(S(=O)(=O)N2CCCN(CCC(=O)Nc3cccc(C(F)(F)F)c3)CC2)cc1,–,"inconclusive [inhibitor, partial curve, poor fit]"
CCOC(C)=O,inactive: -12.8%,–
Fc1ccc(F)c(C2=NNC(=NCC3CCCO3)SC2)c1 (configuration not stated),–,"inconclusive [inhibitor, single point]"
COc1ccccc1N1CCN(S(=O)(=O)CCNC(=O)CC2CCCCC2)CC1,inactive: -2.37%,–

Compound,"activity change, negative = inhibition",Potency
Cc1ccc2oc(=O)cc(CN3CCC(C)CC3)c2c1,–,"inconclusive [inhibitor, partial curve]"
O=C(Nc1ccn(CC(=O)N2CCN(c3ccccn3)CC2)c(=O)n1)OCc1ccccc1,–,"inconclusive [inhibitor, single point]"
O=C(Cc1ccccc1[N+](=O)[O-])OCc1cccc([N+](=O)[O-])c1,inactive: -2.23%,–
O=C1c2sc3nc4n(c(=O)c3c2CCC1Br)CCCCC4 (configuration not stated),–,"inconclusive [inhibitor, single point]"
CC1Cc2cc(S(=O)(=O)N3CCC(C(=O)N(C)Cc4ccccc4)CC3)ccc2N1C(=O)C1CC1 (configuration not stated),–,active: 13.1 µM
O=c1c2ccccc2[nH]c(=S)n1-c1ccc(Br)cc1,–,"inconclusive [inhibitor, single point]"
O=C(NC1(C(F)(F)F)NC(=O)N(C2CCCCC2)C1=O)c1ccco1 (configuration not stated),inactive: 8.82%,–
CCOc1ccc(N(C(=O)CNC(=O)c2ccco2)C(C(=O)NCC2CCCO2)c2ccccc2)cc1 (configuration not stated),–,"inconclusive [inhibitor, partial curve, poor fit]"
O=C(CC1C(=O)NCCN1Cc1cccc(Oc2ccccc2)c1)NCCc1ccccn1 (configuration not stated),–,"inconclusive [inhibitor, single point]"
COc1ccccc1CNC(=O)c1cc2c(C)nn(Cc3ccc(F)cc3)c2s1,–,"inconclusive [inhibitor, single point]"
COc1cccc(CC2(CO)CCCN(Cc3sc(N4CCCC4)nc3Cl)C2)c1 (configuration not stated),–,"inconclusive [inhibitor, single point]"
N#Cc1ccc(-c2csc(NC(=O)c3cc(-c4cccs4)nc4ccccc34)n2)cc1,–,"inconclusive [inhibitor, single point]"
COc1ccc(C(c2nnnn2Cc2ccccc2)N2CCN(C(=O)c3ccco3)CC2)cc1OC (configuration not stated),–,"inconclusive [inhibitor, single point]"
COc1ccc(NC(=O)CCc2nnc3ccc(N4CCC(C)CC4)nn23)cc1,–,"inconclusive [inhibitor, partial curve, poor fit]"
COc1ccc(CN2CCN(C(=O)c3cc(OC)c(OC)c(OC)c3)CC2)cc1OC,–,"inconclusive [inhibitor, single point]"
CC(C)CC(C(=O)NC1CCCC1)N(Cc1ccc2c(c1)OCO2)C(=O)c1snc(C(N)=O)c1N (configuration not stated),–,"inconclusive [inhibitor, single point]"
CCCCCN(C(=O)CCC(=O)OCC(=O)c1ccc(C(C)(C)C)cc1)c1c(N)n(CCCC)c(=O)[nH]c1=O,–,"inconclusive [inhibitor, single point]"
COc1ccc(Cl)cc1NC(=O)CCN1CCN(Cc2ccccc2)CC1,–,"inconclusive [inhibitor, partial curve, poor fit]"
Cc1ccc(S(=O)(=O)Cn2nnnc2C(C(C)C)N2CCN(c3nc4ccccc4s3)CC2)cc1 (configuration not stated),–,active: 4.65 µM
CCOc1ccc(S(=O)(=O)NC(C)(C)C)cc1-c1nc2c(C(C)(C)C)nn(C)c2c(=O)[nH]1,–,active: 4.65 µM
CCOc1cc(/C=C2/C(=O)ON=C2C)ccc1OCc1ccccc1,–,"inconclusive [inhibitor, single point]"
